Measurements as given in PubChem BioAssay AID1508623 (National Center for Advancing Translational Sciences (NCATS), 2021).
In all, about 48,000 compounds went through this assay and about 450 (0.94%) were called active. Not shown: some 19% with an inconclusive outcome. Calls come from the whole dose curve; as a rule, active = well fitted inhibition curve with a large enough effect; inconclusive = small, poorly fitted or top-dose-only effect; inactive = no such curve, though single readings can be large or run the other way. This is one part of the list.

Assay: Primary qHTS for Identification of Small Molecule Inhibitors of Huntingtin Promoter Activity; note: nearly all actives have a fitted effect of over 50% in size
Settings: HEK293 HTT promoter firefly luciferase reporter (activity 0% = vehicle and -100% = no light), 24 h; series mostly up to 57.5 µM; activity change, negative = inhibition: at the top concentration
Procedure, shortened: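 Firefly luciferase readout (Dual-Glo, 10 min RT) after 24 h, 37 °C compound exposure (final up to 57.5 uM) of HEK293 reporter cells cultured 24 h beforehand; PTC124 at 50 uM final as control inhibitor; activity scaled vehicle 0%, zero RLU -100%.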
Potency is the fitted concentration of half-maximal effect.

Row | Structure (SMILES) | activity change, negative = inhibition | Potency
1 | CCn1c(=O)c2cc(C(=O)NC3CCC(C)CC3)sc2c2ccccc21 (configuration not stated) | inactive: -9.66% | –
2 | COc1ccc(NC(=O)c2cc3c(=O)n(Cc4cccs4)ccc3nc2C)cc1 | inactive: -21.2% | –
3 | COc1ccc(OC)c(NC(=O)Cn2c(=O)n(-c3cccc(C)c3)c(=O)c3c2c2cc(C)ccc2n3C)c1 | inactive: -9.62% | –
4 | COc1ccc(-n2c(C)nnc2SCc2nc(-c3ccc(OC)c(OC)c3)no2)cc1 | inactive: -23.2% | –
5 | Cc1ccc(NC(=O)c2c(NC(=O)c3ccc(F)cc3)sc3c2CCCC3)cc1C | inactive: 56.6% | –
6 | CCOC(=O)c1cc(OC(=O)c2cc(OC)c(OC)c(OC)c2)n(-c2ccccc2)n1 | inactive: -11.8% | –
7 | CCOc1ccc(-n2c(SCC(=O)Nc3cc(C)on3)nc3c([nH]c4ccccc43)c2=O)cc1 | inactive: -25.1% | –
8 | CCc1ccccc1N(C)C(=O)Cn1cnc2sc(C)c(S(=O)(=O)N3CCC(C)CC3)c2c1=O | inactive: -7.15% | –
9 | COc1cccc(CNC(=O)CCCn2nc(C)c3sc4ccccc4c3c2=O)c1 | inactive: 6.99% | –
10 | Cc1ccc(Nc2ccc3cc(S(=O)(=O)N4CCCCC4)ccc3n2)cc1F | inactive: -16.1% | –
11 | CCOC(=O)c1ccc(NC(=O)CSc2nc(-c3ccc(OC)cc3)cc(C(F)(F)F)c2C#N)cc1 | inactive: -13.5% | –
12 | CC(C)c1noc(N2CCC(COc3ccc(-c4ccc(S(C)(=O)=O)cc4)nc3)CC2)n1 | inactive: -16% | –
13 | CCn1cc2nc(SCC(=O)Nc3ccc(OC)c(Cl)c3)n(Cc3ccc(OC)cc3)c(=O)c2n1 | inactive: -23% | –
14 | COc1ccc(N(CC(=O)N2CCN(c3ccccc3)CC2)S(=O)(=O)c2c(C)nn(C)c2C)cc1 | inactive: -9.07% | –
15 | COc1ccc(-c2cc3nc(C)c(CCC(=O)NCc4ccccc4Cl)c(C)n3n2)c(OC)c1 | inactive: -34.5% | –
16 | CC(=O)c1ccc(NC(=O)c2cn(-c3ccccc3)nc2-c2ccc(Br)cc2)cc1 | inactive: -7.35% | –
17 | O=C(CCC1CCCC1)N1CCc2c([nH]c3ccccc23)C1c1ccc(F)cc1 (configuration not stated) | inactive: -28.6% | –
18 | N#Cc1nc(COc2ccccc2Cl)oc1NCCc1ccccc1 | inactive: 3.03% | –
19 | CCOc1ccc(NC(=O)NCCN2CCN(c3cccc(C)c3C)CC2)cc1 | inactive: -29.2% | –
20 | CCc1cccc(C)c1NC(=O)C1CCN(S(=O)(=O)c2c(C)noc2/C=C/c2c(C)cc(C)cc2C)CC1 | inactive: -8.33% | –
21 | Cc1ccc(CCNC(=O)CN(c2cc(C)cc(C)c2)S(=O)(=O)c2c(C)noc2C)cc1 | inactive: -8.2% | –
22 | COc1ccccc1Nc1nc(-c2ccc(F)cc2)c2c(n1)-c1ccccc1OC2 | inactive: -14.5% | –
23 | COc1cccc(-n2ccn(CC(=O)NCc3ccc(C)cc3)c(=O)c2=O)c1 | inactive: -16% | –
24 | CCOc1ccc(C2CC(=O)NC(NC(=O)c3cccc(Cl)c3)=N2)cc1 (configuration not stated) | inactive: -1.91% | –
25 | Cc1ccc(CSC2=Nc3ccccc3C3=NC(CC(=O)NCc4cccs4)C(=O)N23)c(C)c1 (configuration not stated) | inactive: -4.34% | –

Row | Structure (SMILES) | activity change, negative = inhibition | Potency
26 | O=C(Nc1ccc2nc(SCCOc3ccccc3)sc2c1)c1ccccc1F | inactive: 4.03% | –
27 | CCOC(=O)c1c(C)c(-c2ccccc2)n(CC(=O)Nc2ccc(OCC)cc2)c1C | inactive: -9.53% | –
28 | COc1ccc(-c2cn3c(n2)sc2cc(C(=O)Nc4cccc(SC)c4)ccc23)cc1 | inactive: -21% | –
29 | Cc1ccc(-c2ccc(=O)n(CC(=O)NCCc3ccc(Cl)cc3)n2)cc1 | inactive: -28.5% | –
30 | COC(=O)C(CCSC)NC(=O)Cn1ncc2c([nH]c3ccccc32)c1=O (configuration not stated) | inactive: 4.81% | –
31 | COc1cccc2c1cc1c(=O)n(CC(=O)N3CCN(c4cccc(Cl)c4)CC3)nc(C)n12 | inactive: 3.12% | –
32 | O=C(OCc1cc(=O)n2nc(-c3cccs3)sc2n1)c1ccccc1 | inactive: -2.52% | –
33 | CC(=O)n1nc(-c2cccnc2)nc1NCc1ccc(F)cc1 | inactive: -18.3% | –
34 | O=C1c2oc3ccccc3c(=O)c2C(c2ccc(O)cc2)N1Cc1ccc2c(c1)OCO2 (configuration not stated) | inactive: 21.4% | –
35 | O=C(c1ccc(Cl)cc1)N1CCC(c2nc3ccccc3o2)CC1 | inactive: -27.9% | –
36 | CCOc1ccc(NC(=O)c2c(NCc3ccc(C)o3)sc3c2CCCCC3)cc1 | inactive: -9.51% | –
37 | CCn1cc(C(=O)OCC(=O)Nc2cc(OC)cc(OC)c2)c(=O)c2ccc(C)nc21 | inactive: -15.5% | –
38 | Cc1ccc(CNC(=O)CN2C(=O)CSc3ccc(S(=O)(=O)N(C)C)cc32)cc1 | inactive: -21.4% | –
39 | Cc1cc(OCC(=O)Nc2c(C(=O)c3ccccc3)oc3ccccc23)cc(C)c1Cl | inactive: 8.39% | –
40 | CCOC(=O)C1CCCN(c2c(C(=O)c3ccc(OCC)cc3)cnc3ccccc23)C1 (configuration not stated) | inactive: -35.7% | –
41 | CC(C)CN(CCCNC(=O)c1cc(-c2cccs2)nc2ccccc12)CC(C)C | inactive: -14.7% | –
42 | Cc1nn(C)c2c1c(-c1ccccc1)cc(=O)n2Cc1ccccc1C#N | inactive: -34% | –
43 | CCCCc1nn2c(=O)cc(COC(=O)c3cccc(Cl)c3)nc2s1 | inactive: -25.2% | –
44 | Cc1cccc(C)c1NC(=O)Cn1nnc(C(=O)Nc2c(C)cccc2C)c1N | inactive: -8.04% | –
45 | Cc1ccc(CNC(=O)CN2C(=O)CSc3c2c(C)nn3-c2ccccc2)cc1 | inactive: -12.9% | –
46 | COc1ccc(NC(=O)c2oc3ccccc3c2NC(=O)Cc2coc3cc(C)ccc23)cc1 | inactive: -1.93% | –
47 | COc1ccc(C)cc1NC(=O)CCNC(=O)Cn1ccc2ccccc2c1=O | inactive: -14.8% | –
48 | COCCCn1c(=N)c(C(=O)NCc2cccnc2)cc2c(=O)n3cccc(C)c3nc21 | inactive: 2.51% | –
49 | CCOC(=O)c1c(C)[nH]c(CCC(=O)NCc2cccc(C)c2)c1C | inactive: -13% | –
50 | COc1ccc(-n2ncc(C(=O)Nc3ccc4c(c3)OCO4)c2C2CCN(C(=O)OC(C)(C)C)CC2)cc1 | inactive: 20.3% | –

Row | Structure (SMILES) | activity change, negative = inhibition | Potency
51 | COc1ccc2oc(-c3ccc(C)c(NC(=O)c4ccc5c(c4)OCCO5)c3)nc2c1 | inactive: -0.296% | –
52 | Cn1c(-c2ccccc2)cnc1NCc1ccccc1O | inactive: 7.52% | –
53 | O=C(NCc1ccccc1Br)c1ccc2c(c1)nc1n2CCOC1 | inactive: 7.71% | –
54 | CCCNC(=O)COCc1cc(-c2ccc(F)cc2)on1 | inactive: 7.8% | –
55 | O=C(CCC1N=C2c3ccccc3N=C(SCc3ccccc3F)N2C1=O)NCc1ccccc1 (configuration not stated) | inactive: 6.12% | –
56 | COc1ccc(NC(=O)CN2C(=O)CSc3ccc(S(=O)(=O)N(C)C)cc32)cc1Cl | inactive: -30.6% | –
57 | COc1ccc(NC(=O)C2CCN(C(=O)N3CCOc4ccccc43)CC2)cc1 | inactive: -12.8% | –
58 | Cc1ccccc1Cn1nnc2c(=O)[nH]c(C3CCN(C(=O)c4ccccc4Cl)CC3)nc21 | inactive: -15.5% | –
59 | Cc1ccc(-n2ncc(C(=O)NCc3ccccn3)c2C2CCN(C(=O)OC(C)(C)C)CC2)c(C)c1 | inactive: -30.4% | –
60 | COc1ccc(CNC(=O)CCCn2c(=O)c3cccn3c3ccc(F)cc32)cc1OC | inactive: 10.2% | –
61 | O=c1c2cc3c(cc2n(Cc2ccccc2)c(=O)n1Cc1nc(-c2ccccc2)no1)OCO3 | inactive: 14.3% | –
62 | COc1ccc(NC(=O)N2CCN(S(=O)(=O)c3ccc4c(ccn4C)c3)CC2)cc1OC | inactive: -2.3% | –
63 | CCC1CN(C(=O)NCc2ccccc2)c2cc(C)ccc2O1 (configuration not stated) | inactive: -12.8% | –
64 | COCCCNC(=O)C(C)n1c2ccccc2c2cnn(C)c(=O)c21 (configuration not stated) | inactive: -10.4% | –
65 | CCCSc1nc(-c2ccc(OC)cc2)cc(-c2ccccc2OC)c1C#N | inactive: 17.7% | –
66 | COc1ccc(Br)cc1CNC(=O)c1cc(=O)[nH]c2ccc(S(=O)(=O)N3CCCCC3)cc12 | inactive: -1.01% | –
67 | COc1ccc(Cl)cc1Nc1cc(C)nc2nc(-c3ccccc3C)nn12 | inactive: -3.62% | –
68 | CN(C)c1ccc(C(CNC(=O)c2cccc(C(F)(F)F)c2)N2CCCC2)cc1 (configuration not stated) | inactive: -17.4% | –
69 | CCOc1ccc(NC(=O)C2CCN(S(=O)(=O)c3c(C)noc3/C=C/c3c(C)cc(C)cc3C)CC2)cc1 | inactive: -20.3% | –
70 | CCCCCCCC/C=C\CCCCCCCCN | inactive: 7% | –
71 | Cc1ccc(CNc2ncnc3c2c(-c2ccccc2)cn3-c2ccccc2)cc1 | inactive: -15.6% | –
72 | CCCC(=O)Nc1cccc(-c2cn3cccnc3n2)c1 | inactive: 31.4% | –
73 | CCCC(CCC)C(=O)O | inactive | –
74 | CCN(CC)c1ccc(NC(=O)c2sc3ccccc3c2Cl)cc1 | inactive: 21.9% | –
75 | CC(C)[N+](C)(C)CC(O)COc1cccc2ccccc12 (configuration not stated) | inactive: 2.7% | –

Row | Structure (SMILES) | activity change, negative = inhibition | Potency
76 | CCCn1c(=N)c(C(=O)NCc2cccnc2)cc2c(=O)n3ccccc3nc21 | inactive: -6.93% | –
77 | CCOC(=O)c1cc(OC(=O)c2ccc(OC)cc2)n(-c2ccccc2)n1 | inactive: 1.69% | –
78 | COc1ccc(NC(=O)C(Cc2ccccc2)NS(=O)(=O)c2ccc3c(c2)CCN3C(C)=O)cc1 (configuration not stated) | inactive: -12.3% | –
79 | Cc1ccc(C)c(CNC(=O)c2ccc3c(c2)nc2n3CCC(C)C2)c1 (configuration not stated) | inactive: 20.6% | –
80 | Cc1ccc(N(C)S(=O)(=O)c2nnc(NC(=O)CC(C)C)s2)cc1 | inactive: 5% | –
81 | CCOC(=O)Cc1ccc(NC(=O)Nc2cc3c(cc2N2CCCCC2)n(C)c(=O)n3C)cc1 | inactive: -15.4% | –
82 | CN(C)CCCC1(c2ccc(F)cc2)OCc2cc(C#N)ccc21 (configuration not stated) | inactive: -16.9% | –
83 | CCOC(=O)c1cc2c(=O)n3ccccc3nc2n(C)c1=NC(=O)c1c(-c2ccccc2Cl)noc1C | inactive: -2.36% | –
84 | COc1ccc(-n2cc(C(=O)Nc3cc(F)ccc3F)c3ccccc3c2=O)cc1 | inactive: -9.29% | –
85 | CCCCOC(=O)c1ccc(NC(=O)CC2NCCNC2=O)cc1 (configuration not stated) | inactive: 7.33% | –
86 | COCCCNC(=O)C1CCC(CNS(=O)(=O)c2ccc(OC)cc2)CC1 (configuration not stated) | inactive: -16.2% | –
87 | COc1cccc(CNC(=O)C2CCN(Cc3cc4ccccc4n3Cc3ccc(C)cc3)CC2)c1 | inactive: -9.31% | –
88 | COc1ccc2oc(=O)c(C(=O)Nc3cccc(C(=O)O)c3)cc2c1 | – | active: 3.98 µM
89 | COc1cc(-c2cc3n(C)c(C)c(CCC(=O)NCc4ccccc4)c(=O)n3n2)cc(OC)c1OC | inactive: 2.44% | –
90 | Cc1nc2c(-c3ccccc3)c(C)nn2c(C)c1CCC(=O)NCc1ccc(Cl)cc1 | inactive: -10.1% | –
91 | Cc1ccc(CNC(=O)CCCN2C(=O)CCn3nc(-c4cn(C)c5ccccc45)cc32)cc1 | inactive: 0% | –
92 | COc1ccc(NC(=O)CC2C(=O)N(c3ccccc3)C(=O)N2C2CCCCC2)cc1 (configuration not stated) | inactive: -20.1% | –
93 | CCOC(=O)c1nnn(CC(=O)Nc2cc(C)cc(C)c2)c1C(=O)OCC | inactive: -24.5% | –
94 | CCOC(=O)c1ccc(NC(=O)c2nc(SC(C)C)ncc2Cl)cc1 | inactive: -28.8% | –
95 | Cc1ccc(C)c(Cn2cnc3c(cnn3-c3ccc(F)cc3)c2=O)c1 | inactive: -1.51% | –
96 | Cn1nc(C(=O)NCc2ccc(F)cc2)c2c1-c1ccccc1SC2 | inactive: -14.8% | –
97 | Cc1cc(-c2ccccc2)n2nc(-c3cccc(Br)c3)cc2n1 | inactive: -19.4% | –
